Experimental data taken from PubChem BioAssay (Tox21).
“And” between values parts separate entries of the source, which are not always exact repeats. Identical values can stand only once. Inconclusive results, whose numbers are uncertain, are shown with a selection of clear calls. A potency beside an inconclusive call is a rough fit, not a confirmed value. More than one record can exist for a structure, and the calls need not agree. The source made the active and inactive calls. Calls come from the whole dose curve; as a rule, active = well fitted curve in the direction sought with a large enough effect in the repeat runs; inconclusive = weak or mixed curves; inactive = no such curve, though single readings can be large; an effect the other way counts as inactive or inconclusive.

Each compound was assayed against Nuclear receptor subfamily 1 group I member 2 (Homo sapiens) (UniProt O75469) (assay: CYP3A4 induction through human pregnane X receptor (PXR) by small molecules, qHTS assay (AID 1346984; note: nearly all actives have a fitted effect of over 40% in size)). Details: DPX-2 HepG2 PXR, CYP3A4-luciferin luminescence, 24 h; series mostly up to 46.1 µM; activation: at the top concentration.
Outline: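 Read-out is luminescence after One-Glo addition, following a 3 hr, 37C incubation with Luciferin-IPA CYP3A4 substrate (3uM final). Before that, compounds were on DPX-2 cells (HepG2 co-transfected with PXR element plus CYP3A4-promoter luciferase) for 24 hr at 37C.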
% is set by controls: 0 for no effect and ±100 for the full control effect; potency is the fitted concentration of half-maximal effect; tags give direction and shape of the fitted curve.

Row | SMILES | Potency | activation
1 | CC1(C)O[C@@H]2C[C@H]3[C@@H]4C[C@H](F)C5=CC(=O)C=C[C@]5(C)[C@@]4(F)[C@@H](O)C[C@]3(C)[C@]2(C(=O)CO)O1 | inconclusive: 0.0891 µM [activator, full curve, poor fit] | 
2 | CN(C(=O)CN(CCO)CC(=O)N(C)C(C)(C)Cc1ccccc1)C(C)(C)Cc1ccccc1 | inconclusive: 14.1 µM [activator, single point] | 
3 | O=C(Nc1ncc([N+](=O)[O-])s1)c1cccs1 |  | inactive: -33.7%

What follows are compounds tested against Nuclear receptor subfamily 1 group I member 2 (Homo sapiens) (UniProt O75469) (assay: Human pregnane X receptor (PXR) activation by small molecules, qHTS assay (AID 1346985; note: nearly all actives have a fitted effect of over 40% in size)). Details: DPX-2 HepG2 CYP3A4-luciferase, 24 h; series mostly up to 38.3 µM; activation: at the top concentration.
Outline: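 DPX-2 cells (HepG2 co-transfected with a PXR response element and a CYP3A4-promoter luciferase construct) were seeded at 2,000 per well, rested 5 hr at 37C, then exposed to DMSO-dissolved compounds for 24 hr. Activation was read as luciferase luminescence.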

Row | SMILES | Potency | activation
4 | O=C1c2ccccc2C(=O)C1c1ccc(Br)cc1 | active: 7.08 µM | 
5 | NCc1ccc(S(N)(=O)=O)cc1 |  | inactive: -3.9% [at 17.1 µM]
6 | CN(C)CCN1C(=O)c2ccccc2N(C)c2ccccc21 | inconclusive: 28.2 µM [activator, single point] | 
7 | c1ccc2sc(SN3CCOCC3)nc2c1 | active: 10 µM | 
8 | CN(C(=O)CN(CCO)CC(=O)N(C)C(C)(C)Cc1ccccc1)C(C)(C)Cc1ccccc1 | active: 8.91 µM | 
9 | O=C(Nc1ncc([N+](=O)[O-])s1)c1cccs1 | inconclusive: 0.355 µM [activator, full curve, poor fit] | 
10 | CC[N+](C)(CC)CCOC(=O)C1c2ccccc2Oc2ccccc21 | inconclusive: 31.6 µM [activator, single point] | 
11 | CCN1CCC[C@H]1CNC(=O)c1c(O)c(Cl)cc(Cl)c1OC | inconclusive: 25.1 µM [activator, partial curve, poor fit] | 

What follows are compounds tested against Cytochrome P450 2D6 (Homo sapiens) (UniProt P10635) (assay: Cytochrome P450 Family 2 Subfamily D Member 6 (CYP2D6) small molecule antagonists: luciferase reporter qHTS assay (AID 1671196; note: nearly all actives have a fitted effect of over 50% in size)). Details: P450-Glo CYP2D6 enzyme assay, luciferin luminescence, 1 h; series mostly up to 115 µM; activity change, negative = inhibition: at the top concentration.
Chain of UniProt P10635 (P10635 whole entry, looked up): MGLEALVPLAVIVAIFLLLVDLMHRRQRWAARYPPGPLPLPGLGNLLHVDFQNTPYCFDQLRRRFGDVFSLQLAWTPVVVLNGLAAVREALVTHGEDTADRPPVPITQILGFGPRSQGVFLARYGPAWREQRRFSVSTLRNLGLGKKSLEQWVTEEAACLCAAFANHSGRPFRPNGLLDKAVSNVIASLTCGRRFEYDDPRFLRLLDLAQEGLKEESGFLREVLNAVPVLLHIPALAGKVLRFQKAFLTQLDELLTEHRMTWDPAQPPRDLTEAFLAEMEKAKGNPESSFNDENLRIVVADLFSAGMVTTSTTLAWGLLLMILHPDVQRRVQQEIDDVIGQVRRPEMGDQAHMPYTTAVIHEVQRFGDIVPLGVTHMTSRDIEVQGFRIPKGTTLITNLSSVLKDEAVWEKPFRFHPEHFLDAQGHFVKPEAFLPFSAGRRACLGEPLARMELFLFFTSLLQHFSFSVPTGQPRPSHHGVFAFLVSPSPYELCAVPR
Outline: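 CYP2D6 activity was followed as luminescence from its luciferin product after a 1 h NADPH-driven reaction at room temperature. Enzyme-substrate mix and compound were pre-incubated for 10 min, and the signal was read 20 min after adding detection reagent.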

Row | SMILES | activity change, negative = inhibition | Potency
12 | CC(C)(C)NCCNC(C)(C)C | inactive: -4.49% | 
13 | Cn1cnc2ncnc(N)c21 |  | inconclusive: 39.7 µM [inhibitor, partial curve, poor fit]
14 | O=C1c2ccccc2C(=O)C1c1ccc(Br)cc1 | inactive: -9.35% [at 53 µM] | 
15 | NCc1ccc(S(N)(=O)=O)cc1 | inactive: -7.49% [at 53 µM] | 
16 | CC(=O)OC/C=C(/C)CCC=C(C)C |  | inconclusive: 63.3 µM [inhibitor, partial curve]
17 | CN(C)CCN1C(=O)c2ccccc2N(C)c2ccccc21 |  | inconclusive: 17.4 µM [inhibitor, partial curve, poor fit]
18 | C=CCN1CCc2nc(N)sc2CC1 |  | inconclusive: 13.8 µM [inhibitor, partial curve]
19 | c1ccc2sc(SN3CCOCC3)nc2c1 |  | inconclusive: 34.7 µM [inhibitor, partial curve]
20 | ClC/C=C\CCl |  | inconclusive: 66 µM [inhibitor, partial curve]
21 | O=C(O)O | inactive: -1.63% [at 10.5 µM] | 
22 | CCCCCCCCCCCCSC#N | inactive: 1.59% | 
23 | CN1CCc2cccc3c2[C@H]1Cc1ccc(O)c(O)c1-3 |  | active: 45.3 µM and active: 11.8 µM and active: 38.9 µM
24 | Cc1cccc(O)c1C |  | inactive
25 | CC1CCC(C(C)CS)CC1S (configuration not stated) | inactive: -12.7% | 
26 | Cc1ccnc2c1NC(=O)c1cccnc1N2C1CC1 |  | active: 7.4 µM and inactive
27 | CC(CC=O)CCCC(C)(C)O (configuration not stated) |  | active: 39.7 µM
28 | O=Cc1ccc(F)cc1 |  | active: 35.6 µM
29 | O=C(Nc1ncc([N+](=O)[O-])s1)c1cccs1 |  | active: 12.3 µM
30 | CCC(=O)/C=C/C1C(C)=CCCC1(C)C (configuration not stated) |  | inconclusive: 11.3 µM [inhibitor, partial curve, poor fit]
31 | CC(O)CN(CCN(CC(C)O)CC(C)O)CC(C)O (configuration not stated) |  | inconclusive: 35.6 µM [inhibitor, partial curve] and inconclusive: 27.5 µM [inhibitor, partial curve, poor fit]
32 | CC(C)(C)NCC(O)c1ccc(O)c(CO)c1 (configuration not stated) | inactive: -9.87% [at 53 µM] | 
33 | CCCCC(CC)CN (configuration not stated) |  | active: 36.2 µM
34 | CC(=O)c1ccc([N+](=O)[O-])cc1 |  | inconclusive: 35.6 µM [inhibitor]
35 | NC(=S)NC(N)=S |  | inconclusive: 71 µM [inhibitor, partial curve]
36 | CCCCOC(O)CC (configuration not stated) | inactive: -11.9% | 
37 | C/C=C/c1ccc(O)c(OC)c1 |  | inconclusive: 31.7 µM [inhibitor, partial curve] and inactive
